According to the supplement of paper PMC10126150:
Sequences with one replicate were seen in a single cluster, so their values are uncertain.

Tested on: ATP
Test: switch fluorescence ratio, 500 uM ATP over buffer (Cy3 cluster intensity, sum of 5 cycles each) (fold (ratio)); higher = stronger signal-on switching upon ATP binding; sequences stand for … in TCGTCGGCAGCGTCAGATGTGTATAAGAGACAGTTTTTTTTTTTTTTTTTTTTTTTTT…TC
Conditions: aptamer strand: ATP DNA aptamer (quencher-CACCTGGGGGAGTATTGCGGAGGAAGG + anchor), 100 nM annealed; ATP concentration: 500 uM; one replicate
Outline: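 The fluorescence ratio divides summed target-cycle Cy3 intensity by summed buffer-cycle Cy3 intensity for each cluster and is averaged per switch-domain sequence. Cy3-labelled switching-strand clusters on a modified Illumina MiSeq flow-cell were annealed to 100 nM quencher-labelled ATP aptamer, then imaged in selection buffer and again after 15 min with 500 uM ATP at 22 °C. Five such cycles were run, with NaOH stripping and re-annealing between them, and clusters outside 100-1000 RFU were excluded.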
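Further: ATP exposure 15 min at 22 °C before imaging.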

Sequence | switch fluorescence ratio
TGATCAGGTT | 1.02
AATCTGACTT | 0.973
AATCGGGCCC | 0.983
TAGACTAATA | 1.02
GACAAACTTG | 1.19
GGTGGAGGC | 0.98
CACCCCCTAG | 1.24
TATAGTCTAT | 1.06
ACAATCTTGA | 0.973
CGCATTGAGG | 0.998
GGACCGGTCG | 0.982
CACCCTCAGG | 1.45
GTCGGGCCTA | 1.04
GTCCCTAATA | 1.04
CGGGAAGGGT | 0.966
ACGGGACTGG | 1.08
CTATAGTGCG | 0.995
GGGAATGCCC | 1.03
TCATGCCATC | 0.986
ATCGATCGGG | 0.968
AGGTGCATCC | 1
TGGAGGGTGT | 1.04
AATCAGAGGC | 1.02
GGACGTACCT | 1.8
CTCGCGACAG | 1.04

Sequence | switch fluorescence ratio
CTGACGTTTC | 2
AGTGTTAAAA | 0.997
GGCAGACCAG | 1.02
ACCGAATGTG | 1.05
AGGGGGGAT | 0.961
CTAAGTCTGG | 1.01
CCGGTTCTTT | 1.05
TCACTATAA | 1.07
CGTCTTAGTC | 1.04
ATGGGTCAGA | 1.05
TACAAGGGGT | 1.04
CCAGGTGTGA | 3.8
AGCTACGTTG | 0.988
GATTCCGTGC | 1.42
TCTAACCTTA | 1.1
GGTTAAGGTA | 1
GCAATAATGT | 1.07
GCCTGTGTAG | 0.961
TAACTTCGGG | 1.02
GATTTACTGC | 0.985
GCTGTACAAT | 1.02
GACACGACAC | 2.09
ATAATCAATT | 1.02
AGGTCCAAGC | 1.03
TTCCGCGGTT | 1.1

Sequence | switch fluorescence ratio
AAGGTAGTA | 0.998
CTTGAGCCAC | 1.17
AGTATGATTA | 0.977
CCTCCGGCG | 4.37
GGATGCGAGC | 1.03
ACGAGTAATC | 1.22
ACTCATACTT | 1.07
TGATGATCG | 0.967
ATGAGAAAGG | 1.02
TGAAATGTTG | 0.978
TCACACACTG | 1.38
GGTTCAATTA | 0.931
GGCTGAGTCG | 0.975
AATTGCTCTC | 1.02
GAGACAAGGT | 1.01
TTCCGACAGT | 1.54
GGGGCATAAT | 0.96
TGCCGGATTG | 1.01
CAAAAAGCTG | 0.9
CCATGTCAAA | 1.04
TGTGACTAGC | 0.985
GGTTGGGTCT | 0.991
GGTTAAGTCG | 0.987
CCGGAGGAGT | 1.19
TGTGCTTTTT | 0.982

Sequence | switch fluorescence ratio
GTTGGCTCAG | 1.03
AGTTATAATG | 0.982
CTCCGCCGGT | 3.96
CTTGAAATAC | 1.09
ATGGTCGGTA | 0.923
GTGAGGTCG | 0.954
ACACGGTGAG | 1
CGTTCTGATA | 0.978
TACTGAAACT | 1.08
AAGATTGGCT | 0.982
CCTACGGAGC | 5
AATTATGGGT | 1.03
TAACATATT | 0.988
ACGATGGGAT | 1.01
TGAGAGGGAA | 0.965
GGCGTAGGAC | 1.04
CGTTATTCTT | 1.01
ATGTGACCCA | 1.01
CGAGGGCACG | 1.01
ATTGAATAGC | 0.992
GAAGTTGCGT | 0.959
CCTTGGAACA | 1.01
AAGCTGTCCG | 1.01
TTTATACAGA | 0.997
GGGAGGGATC | 1.01

Sequence | switch fluorescence ratio
TAGACGGAAT | 1.14
GATATCACGC | 1.05
GCCTATTGTA | 0.973
GCATTGCAAG | 1.03
GCAATGTGTT | 1.02
TTACCCACTG | 1.24
TCTTAATGAG | 1.01
TCCAAGTGCC | 1.02
CGTGGTTAGC | 1.02
GATGTATTCC | 1.06
TTATGATGGC | 0.928
ACTCCACATA | 3.84
TTCGGTGACG | 1.03
GCCGAGCGTC | 1.06
GCGATAGTCG | 1.08
CTCAGCCGGA | 0.957
CGGTGTCGC | 1.05
CTGCTAACG | 1.05
ACCACAAGCT | 1.06
GACTAGCCCG | 0.948
TGATTCGTGG | 0.992
TAATCGACGA | 1.03
CATATTGGA | 1.02
GAGTACGGTT | 0.972
GTGGCGTGAT | 1.03

Sequence | switch fluorescence ratio
TTCGCGACGA | 1.09
TATTCATAGC | 0.969
ATTGAAACAA | 1.04
AATTCTAAAG | 1.01
GACCATATGC | 1.37
GGATAAGGTG | 0.999
TTGCGTCGCT | 1.02
GATTACAAAA | 1.03
CAGGCAGAGA | 0.961
GTCACTCTGC | 1.12
GGAACTCCGG | 1.03
TGCGTCTTGC | 0.936
TTGCCTAGGT | 1.04
GCTTTCATAG | 0.993
AGATCGGAGG | 1.01
GAGGCGTCCC | 1
CGGTTTGGTC | 1.01
GCTGGTCACC | 0.974
TAGCTTGCGA | 0.996
GCCACTATGG | 1.04
TAAGAATTCT | 0.976
ATAACGACAA | 1.23
TCACTCCCTG | 1.26
CATGAGCTCA | 1.04
TCCGTCGGCT | 1.06

Sequence | switch fluorescence ratio
GTTCGCACCT | 1.22
ACTCCTTTTT | 0.962
GTCTGGTCAG | 1.04
CGGATGGAAG | 0.985
GAGGCGTTAA | 1.07
TGCAATGAGT | 1.04
TCAACGCGGC | 2.02
CAGTTGGTCC | 0.966
TCAGCGCGAT | 1.51
AAGAAACAGG | 0.973
TCGGCTAGTT | 1.01
TATAAGTGCA | 1.01
CCAGATTTGG | 1.02
TATCCAACGT | 1.03
GAACAACGA | 0.978
GGATTCGCTG | 0.979
TTGACACAAT | 1.4
AAAACCGACG | 0.963
GCATAAAATC | 0.954
TGCGAAGAGT | 0.971
TGGTTGCAAA | 0.984
CAGAAACCCT | 1.11
TGCACTATGG | 1
CCGATAGGGT | 0.974
GGGGCCCTCG | 0.989

Sequence | switch fluorescence ratio
GCCGCCACTA | 1.05
CTTTTGCCGG | 0.987
CGACGGTGCC | 1.1
CTTGTGACC | 0.964
TATCCGTAGC | 3.05
CGATTCGGC | 0.974
AAGAACGTCG | 1.06
AGCGGATAGT | 1.05
ATTTGATGGC | 0.995
TCAGAGAGCG | 1.05
TTTTTGCCCG | 0.945
ACCGGTGTGG | 0.995
TCATTAAA | 0.974
AGCTTACGAC | 3.94
TGAAAAATCT | 1.01
GTACGCAAGT | 1.16
ACCCGTCCGC | 2.77
AATAGCCAGG | 1.19
TTTTATTCAA | 0.993
AATTAACTGG | 0.971
GAACGGGAG | 1
GTTTTTCCGT | 0.995
ATAAAATACC | 0.983
AGTTGGTCGA | 1.03
CGCTGCTTGT | 0.997
